The text below walks through data of the supplement of paper PMC11417369.

± gives the standard deviation of the averaged measurements. The list shows a part of the results.

The assay concerns PfAP2-G AP2 domain (GST-tagged). Nature of the assay: gcPBM binding intensity (ln(normalized median fluorescence intensity)); higher = stronger DNA binding. A digest of the protocol:
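GST-tagged P. falciparum DNA-binding domains, expressed in E. coli (about 25 μg on average), were applied for 1 h to an Agilent 4 × 180k array of primer-extended double-stranded 36-bp intergenic genomic probes plus negative controls. The binding buffer was 1× PBS with 1% milk, 0.2 mg/ml BSA, 0.5% salmon testes DNA and 0.03% Triton X-100. Bound protein was detected with Alexa488 anti-GST antibody and scanned at 488 nm. Binding intensity is the highest Masliner-normalised natural-log median intensity across replicate spots of either probe orientation.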
Take “GATATATAAATTGACACACACATATATACCTATATA [CACACA_site6689]”: the “gcPBM binding intensity (ln)” value was 10.1 ± 0.2.

Turning to “TTCTTTTTTTTTTTTTCATGTATATTAAACTTTTCA [TGCATGCA_negctrl_site592]”, the “gcPBM binding intensity (ln)” value came to 9.74 ± 0.22.

Turning to “TATAATGTTGATGATAGTACGTATGAGTTCAAAAAA [XGTACX_site3651]”, the “gcPBM binding intensity (ln)” value is 11.2 ± 0.65.

For the sequence “AGAAATTAAATGTAAGCACACATAAATTATACACAT [CACACA_site9098]”, the “gcPBM binding intensity (ln)” value is 10.1 ± 0.12.

As to “AAAAAATTATACCAGTGTACTTTTTTGGTTTTTCTT [XGTACX_site2601]”, the “gcPBM binding intensity (ln)” value stood at 11.5 ± 0.99.

For the sequence “ATATATTTAAAAAAATGTACAAATCATAAATGCAAG [XGTACX_site4230]”, the “gcPBM binding intensity (ln)” value was determined as 10.8 ± 0.42.

In the case of “TCCTTACACACACTTTTTTTTTTTTTTTTTTCTACA [GTGCAC_negctrl_site263]”, the “gcPBM binding intensity (ln)” value worked out at 10 ± 0.12.

Consider “ATATATTATCAACTTACACACAGAAAACTATAATAA [CACACA_site6275]”, for which the “gcPBM binding intensity (ln)” value is 10.07 ± 0.014.

Take “CTTTTTCCTTTATAAAGTACTTAAAATATTTAGATA [XGTACX_site4259]”: the “gcPBM binding intensity (ln)” value is 11.1 ± 0.59.

Turning to “CTCGATCAAGTGTATGCATGTACCAGTGAACAAAAA [TGCATGCA_site635]”, the “gcPBM binding intensity (ln)” value was found to be 10.9 ± 0.34.

For the sequence “AAAAGAATTAATTTATGTACTAATTTCAAGAAATAA [XGTACX_site3241]”, the “gcPBM binding intensity (ln)” value turned out to be 11.1 ± 0.69.

Consider “TTTATAAAAATATACACACATACAAATATGCATATA [CACACA_site712]”, for which the “gcPBM binding intensity (ln)” value came out at 9.91 ± 0.057.

Consider “AAAATACACGCATACACACACACACCCACCCATATA [CACACA_site639]”, for which the “gcPBM binding intensity (ln)” value stood at 10.4 ± 0.13.

Take “AAAAAAAAAAAAAAAACACACACATACACCCAAAAA [CACACA_site7910]”: the “gcPBM binding intensity (ln)” value came out at 10.6 ± 0.28.

Turning to “TTACATATGGTTAGTAGTACATATATAAATGTAAAT [XGTACX_site7206]”, the “gcPBM binding intensity (ln)” value was determined as 11.4 ± 0.87.

On to “TTTATATGTATTAAGTGTACACATATAATCTATCTT [XGTACX_site4922]”, for which the “gcPBM binding intensity (ln)” value worked out at 11.6 ± 0.98.

Regarding “TAATAATATATATGAAGTACAATAACTTTTTGTTTT [XGTACX_site292]”, the “gcPBM binding intensity (ln)” value is 11.3 ± 0.82.

For “GTCAAATTTTTGTGCACACATATATAGTTATTATTA [CACACA_site2241]”, the “gcPBM binding intensity (ln)” value came out at 10.6 ± 0.34.

For “TTTCTTTTCTCAGAAATTATTCAAATGAAAAAAAAT [TGCATGCA_negctrl_site44]”, the “gcPBM binding intensity (ln)” value came to 9.81 ± 0.16.

In the case of “GTATACACATATATATGTACTTAATTATTTTATGTC [XGTACX_site6707]”, the “gcPBM binding intensity (ln)” value is 11.2 ± 0.7.

As for “CAAAGGGAAATTAACACACACATATATATATATATA [CACACA_site2453]”, the “gcPBM binding intensity (ln)” value was found to be 9.98 ± 0.43.

Regarding “AAACATGATTATTATAGTACAATTATAATTATTATA [XGTACX_site2590]”, the “gcPBM binding intensity (ln)” value came to 10.8 ± 0.59.

As for “GTCATAAAAACATATACACACTTGAAATATAAAAAT [CACACA_site5315]”, the “gcPBM binding intensity (ln)” value is 10 ± 0.16.

In the case of “TGTATATATATATAAAGTACATATAATATATATTTG [XGTACX_site5411]”, the “gcPBM binding intensity (ln)” value came to 11.1 ± 0.61.

On to “AAATAAAATTATAACTGTACGTTGTATGAAATAATG [XGTACX_site5462]”, for which the “gcPBM binding intensity (ln)” value amounted to 11.3 ± 0.8.

Turning to “ATTTTTTTACTGCAACCATATTTTTCCCTTTTATTC [CACACA_negctrl_site1282]”, the “gcPBM binding intensity (ln)” value worked out at 10.12 ± 0.085.

Regarding “CTGTTTAAAATATAAACACACATTGTTTGCTTTAGA [CACACA_site1301]”, the “gcPBM binding intensity (ln)” value stood at 9.78 ± 0.042.

On to “TCTATAAAGTTCCATACATGCGCCATCATTTATATT [TGCATGCA_site195]”, for which the “gcPBM binding intensity (ln)” value came to 10.21 ± 0.021.

On to “ATTATAATTATTTTGTTGCACTATTTTTGTAGGCCA [GTGCAC_site9734]”, for which the “gcPBM binding intensity (ln)” value came to 10.3 ± 0.16.

“GAATACACCACGCACACACACTTGAGAAAAAATAAA [CACACA_site7747]”: the “gcPBM binding intensity (ln)” value was 10.6 ± 0.56.

Turning to “GTGTACATAGGTATAGCACACACAAATGTAGGTATT [CACACA_site9339]”, the “gcPBM binding intensity (ln)” value came out at 11 ± 0.59.

With “CATGTAATATTAAACACACACTCATATAACACAATA [CACACA_site65]”, the “gcPBM binding intensity (ln)” value amounted to 10.09 ± 0.057.

For the sequence “AAAGAAAAAAAAAACACACACACACGCATTCAATAT [CACACA_site6169]”, the “gcPBM binding intensity (ln)” value was 10.04 ± 0.042.

Take “ATATATATTTATATATATATATATATATATATGTAT [GTGCAC_negctrl_site220]”: the “gcPBM binding intensity (ln)” value came to 9.56 ± 0.2.

For the sequence “GTCCAATAAGGAAGAGTGCAAAAATTAAATAATATA [GTGCAC_site9751]”, the “gcPBM binding intensity (ln)” value is 10.3 ± 0.16.

Turning to “TAGTTATTTATATACACACACATACAGACAAATAAA [CACACA_site7577]”, the “gcPBM binding intensity (ln)” value was 10.3 ± 0.26.

As for “TCTTAGATTATTTATTGTACTTATGCTTAAAAAATT [XGTACX_site3639]”, the “gcPBM binding intensity (ln)” value was 11.3 ± 0.8.

In the case of “ATATTTTCTTTTTAAAGTACATATTTGATTACAATA [XGTACX_site8414]”, the “gcPBM binding intensity (ln)” value came to 11.1 ± 0.81.

“GAAAAAAAAGAAAAAACACACATATGATATATTTAT [CACACA_site1524]”: the “gcPBM binding intensity (ln)” value was 9.55 ± 0.29.

Turning to “ATATATATATATATATGTACATATTTTTAATTATAA [XGTACX_site7444]”, the “gcPBM binding intensity (ln)” value is 11.3 ± 0.79.

For “AAGAAAATGAAAAAGTAAAAACATATATTAAATATA [TGCATGCA_negctrl_site123]”, the “gcPBM binding intensity (ln)” value amounted to 9.71 ± 0.15.

In the case of “TCGTAGTTACTATGGCAAGAAAATAAACGGTCTTGT [GTGCAC_negctrl_site684]”, the “gcPBM binding intensity (ln)” value came to 10.2 ± 0.23.

On to “ATTATAAATTAAAATACACACATATATACATAATAT [CACACA_site7337]”, for which the “gcPBM binding intensity (ln)” value is 10.04 ± 0.064.

In the case of “TCTTTTTGTTCGTGTACACACATGAAATTTATAAAA [CACACA_site1619]”, the “gcPBM binding intensity (ln)” value was determined as 11.8 ± 1.1.
